Experimental data published in US20140377805A1.

Molecular target: equal amounts of hIL-1α and hIL-1β
Assay: cell-based or functional assay

B1: hIL-1a/bDVD1-Ig (bispecific antibody, human IgG1, kappa)
heavy: QVQLQQSGAELVRPGSSVKISCKASGYAFSSYWMNWVKQRPGQGLEWIGQIYPGDGDTNYNGKFKGKATLTADKSSSTSYMQLSGLTSEDSAMYFCVRFPTGNDYYAMDYWGQGTSVTVSSQIQLVQSGPELKKPGETVKISCKASGYTFRNYGMNWVKQAPGKDLKRMAWINTYTGESTYADDFKGRFAFSLETSASTAYLQINNLKNEDTATYFCARGIYYYGSSYAMDYWGQGTSVTVSS[letters of human IgG1 constant region left out]
light: NIVLTQSPASLAVSLGQRATISCRASESVDSYGNSYMHWYQQKPGQPPKLLIYLASNLESGVPARFSGSGSRTDFTLTIDPVEADDAATYYCQQNNEDPFTFGSGTKLEIKRNIQMTQTTSSLSASLGDRVTISCRASQDISNCLNWYQQKPDGTVKLLIYYTSRLHSGVPSRFSGSGSGTDYSLTISNLEQEDIATYFCQQGKTLPYAFGGGTKLEINRTVAAPSVFIFPPSDEQLKSGTASVVCLLNNFYPREAKVQWKVDNALQSGNSQESVTEQDSKDSTYSLSSTLTLSKADYEKHKVYACEVTHQGLSSPVTKSFNRGEC
dual-inhibition activity, IL-8 synthesis by MRC-5 cells with both cytokines present: 2.2 nM
